Experimental data taken from the supplement of paper PMC12217912.
This is one part of the list. Sequences were assembled here from the parent chain. Values near 0.05 are background.

B1: TEV protease; numbered along this chain (parent)
chain: MGESLFKGPRDYNPISSSICHLTNESDGHTTSLYGIGFGPFIITNKHLFRRNNGTLVVQSLHGVFKVKDTTTLQQHLVDGRDMIIIRMPKDFPPFPQKLKFREPQREERICLVTTNFQTKSMSSMVSDTSCTFPSGDGIFWKHWIQTKDGQCGSPLVSTRDGFIVGIHSASNFTNTNNYFTSVPKNFMELLTNQEAQQWVSGWRLNADSVLWGGHKVFMVKPEEPFQPVKEATQL

Variants of: B1
Experiment: raw area under fraction-flipped curve 0-4 h after induction (AUC4h, not background-subtracted), DNA-recorder readout of cleavage of the substrate (dimensionless); higher = more cleavage of the substrate by the protease variant
Conditions: temperature: 34 °C; time window: 0-4 h after rhamnose induction
Protocol: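 In vivo DNA recorder in E. coli TOP10(DE3) ΔrhaA at 34 °C. Each TEVp single-site mutant (parent TEVp 0) is paired with a single-site variant of the 7-mer TEVs (canonical ENLYFQ|S). The substrate sits between flexible linkers in a Bxb1-sfGFP-TEVs-SsrA fusion, so cleavage stabilises Bxb1 and speeds flipping of a recombination array, read by NGS. The value is the raw area under the fraction-flipped curve over 0-4 h after rhamnose induction (AUC4h), with ≥20 reads per time point. It is not background-subtracted; inactive controls average about 0.047.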
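Note: Bxb1 expression induced with 0.2% (w/v) L-rhamnose at OD600 near 0.5, cultures sampled hourly, flipped fraction per protease–substrate barcode pair counted by paired-end Illumina sequencing.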

Variant	area with substrate ENLAFQS	area with substrate ENLCFQS	area with substrate ENLDFQS	area with substrate ENLEFQS	area with substrate ENLGFQS	area with substrate ENLHFQS	area with substrate ENLKFQS	area with substrate ENLNFQS	area with substrate ENLPFQS	area with substrate ENLQFQS	area with substrate ENLRFQS	area with substrate ENLFFQS	area with substrate ENLIFQS	area with substrate ENLMFQS	area with substrate ENLSFQS	area with substrate ENLTFQS	area with substrate ENLLFQS	area with substrate ENLVFQS	area with substrate ENLWFQS
MGESLFKGPRDYNPISSSICHLTNESDGHTTSLYGIGFGPFIITNKHLFRRNNGTLVVQSLHGVFKVKDTTTLQQHLVDGRDMIIIRMPKDFPPFPQKLKFREPQREERICLVTTNFQTKSMSSMVSDTSCTFPSGDGIFWKHWIQTKKGQCGSPLVSTRDGFIVGIHSASNFTNTNNYFTSVPKNFMELLTNQEAQQWVSGWRLNADSVLWGGHKVFMVKPEEPFQPVKEATQL [D149K]	0.0592	0.063	0.0622	0.0718	0.0764	0.0644	0.0545	0.0808	0.0474	0.0922	0.0669								
MGESLFKGPRDYNPISSSICHLTNESDGHTTSLYGIGFGPFIITNKHLFRRNNGTLVVQSLHGVFKVKDTTTLQQHLVDGRDMIIIRMPKDFPPFPQKLKFREPQREERICLVTTNFQTKSMSSMVSDTSCTFPSGDGIFWKHWIQTKNGQCGSPLVSTRDGFIVGIHSASNFTNTNNYFTSVPKNFMELLTNQEAQQWVSGWRLNADSVLWGGHKVFMVKPEEPFQPVKEATQL [D149N]	0.0633			0.073		0.0539	0.0618	0.0634	0.0607		0.0674	0.111	0.0875	0.0753	0.0552	0.0557			
MGESLFKGPRDYNPISSSICHLTNESDGHTTSLYGIGFGPFIITNKHLFRRNNGTLVVQSLHGVFKVKDTTTLQQHLVDGRDMIIIRMPKDFPPFPQKLKFREPQREERICLVTTNFQTKSMSSMVSDTSCTFPSGDGIFWKHWIQTKDGCCGSPLVSTRDGFIVGIHSASNFTNTNNYFTSVPKNFMELLTNQEAQQWVSGWRLNADSVLWGGHKVFMVKPEEPFQPVKEATQL [Q151C]	0.0702		0.0616	0.0553	0.059	0.0688	0.0801	0.0696		0.0628	0.0461	0.0858	0.063	0.0616	0.0698		0.0783	0.0854	0.0706
MGESLFKGPRDYNPISSSICHLTNESDGHTTSLYGIGFGPFIITNKHLFRRNNGTLVVQSLHGVFKVKDTTTLQQHLVDGRDMIIIRMPKDFPPFPQKLKFREPQREERICLVTTNFQTKSMSSMVSDTSCTFPSGDGIFWKHWIQTKDGPCGSPLVSTRDGFIVGIHSASNFTNTNNYFTSVPKNFMELLTNQEAQQWVSGWRLNADSVLWGGHKVFMVKPEEPFQPVKEATQL [Q151P]	0.0627		0.0436	0.0632	0.0669		0.0535		0.064	0.0427	0.0495	0.056	0.0631		0.059	0.0742			
MGESLFKGPRDYNPISSSICHLTNESDGHTTSLYGIGFGPFIITNKHLFRRNNGTLVVQSLHGVFKVKDTTTLQQHLVDGRDMIIIRMPKDFPPFPQKLKFREPQREERICLVTTNFQTKSMSSMVSDTSCTFPSGDGIFWKHWIQTKDGQCGPPLVSTRDGFIVGIHSASNFTNTNNYFTSVPKNFMELLTNQEAQQWVSGWRLNADSVLWGGHKVFMVKPEEPFQPVKEATQL [S154P]	0.0803			0.0672			0.0618					0.0845			0.0516				
MGESLFKGPRDYNPISSSICHLTNESDGHTTSLYGIGFGPFIITNKHLFRRNNGTLVVQSLHGVFKVKDTTTLQQHLVDGRDMIIIRMPKDFPPFPQKLKFREPQREERICLVTTNFQTKSMSSMVSDTSCTFPSGDGIFWKHWIQTKDGQCGSCLVSTRDGFIVGIHSASNFTNTNNYFTSVPKNFMELLTNQEAQQWVSGWRLNADSVLWGGHKVFMVKPEEPFQPVKEATQL [P155C]	0.0589		0.0605	0.0681	0.079	0.0607	0.0718	0.058	0.0581			0.083		0.0731	0.0653		0.0042		
MGESLFKGPRDYNPISSSICHLTNESDGHTTSLYGIGFGPFIITNKHLFRRNNGTLVVQSLHGVFKVKDTTTLQQHLVDGRDMIIIRMPKDFPPFPQKLKFREPQREERICLVTTNFQTKSMSSMVSDTSCTFPSGDGIFWKHWIQTKDGQCGSPDVSTRDGFIVGIHSASNFTNTNNYFTSVPKNFMELLTNQEAQQWVSGWRLNADSVLWGGHKVFMVKPEEPFQPVKEATQL [L156D]	0.0439	0.0571	0.0626	0.0658			0.0589	0.0576	0.0681		0.058	0.0722	0.0566	0.0662			0.0497	0.044	0.0645
MGESLFKGPRDYNPISSSICHLTNESDGHTTSLYGIGFGPFIITNKHLFRRNNGTLVVQSLHGVFKVKDTTTLQQHLVDGRDMIIIRMPKDFPPFPQKLKFREPQREERICLVTTNFQTKSMSSMVSDTSCTFPSGDGIFWKHWIQTKDGQCGSPIVSTRDGFIVGIHSASNFTNTNNYFTSVPKNFMELLTNQEAQQWVSGWRLNADSVLWGGHKVFMVKPEEPFQPVKEATQL [L156I]	0.0539	0.0687		0.0385			0.0574	0.0676	0.051	0.0621		0.0913		0.0691			0.0465		0.058
MGESLFKGPRDYNPISSSICHLTNESDGHTTSLYGIGFGPFIITNKHLFRRNNGTLVVQSLHGVFKVKDTTTLQQHLVDGRDMIIIRMPKDFPPFPQKLKFREPQREERICLVTTNFQTKSMSSMVSDTSCTFPSGDGIFWKHWIQTKDGQCGSPMVSTRDGFIVGIHSASNFTNTNNYFTSVPKNFMELLTNQEAQQWVSGWRLNADSVLWGGHKVFMVKPEEPFQPVKEATQL [L156M]	0.0591		0.0563	0.0642		0.0906	0.0856	0.0641	0.0795	0.0763	0.0689	0.0804	0.0554	0.0726	0.0766				
MGESLFKGPRDYNPISSSICHLTNESDGHTTSLYGIGFGPFIITNKHLFRRNNGTLVVQSLHGVFKVKDTTTLQQHLVDGRDMIIIRMPKDFPPFPQKLKFREPQREERICLVTTNFQTKSMSSMVSDTSCTFPSGDGIFWKHWIQTKDGQCGSPVVSTRDGFIVGIHSASNFTNTNNYFTSVPKNFMELLTNQEAQQWVSGWRLNADSVLWGGHKVFMVKPEEPFQPVKEATQL [L156V]	0.0655	0.063	0.0713	0.0612	0.0594	0.0621	0.0791	0.073	0.0426		0.0641	0.0462	0.0868		0.0516				0.0812
